Experimental data reported in a collection of fitness landscapes (doi:10.1016/j.celrep.2020.107928).
In all, about 81,000 sequences were measured (“one-hybrid fitness for binding parS DNA”: median about -0.17, highest 2% from about 0.51 on). This is one part of the list.

B1: Caulobacter ParB omega fusion; a variant is named by its letters at X, in order, B8GW30 (parent)
chain: MESVVVGEPGMSEGRRGLGRGLSALLGEVDAAPAQAPGEQLGGSREAPIEILQRNPDQPRRTFREEDLEDLSNSIREKGVLQPILVRPSPDTAGEYQIVAGERAWRAAQRAGLKTVPIMVRELDDLAVLEIGIIENVQRADLNVLEEALSYKVLMEKFERTQENIAQTIGKSXSHVANXMRLLXLPDEVQSYLVSGELTAXHARAIAAAADPVALAKQIIEGGLSVRETEALARKAPNLSAGKSKGGRPPRVKDTDTQALESDLSSVLGLDVSIDHRGSTGTLTITYATLEQLDDLCNRLTRGI

Variants of: B1
Assay: one-hybrid fitness for binding parS DNA (scaled: cognate 1, non-cognate 0); higher = stronger binding
Conditions: with parS DNA site
How it was run: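 On M9-minus-histidine containing 0.1 mM IPTG and 5 mM 3-AT, E. coli USO cells with a HIS3 reporter, site 19 bp from the promoter, grew 48 hours at 37°C to select Caulobacter ParB libraries randomised at four specificity codons. Plasmids from before and after were Illumina-sequenced, with three replicate libraries pooled and variants under 10 reads left out. Fitness is the log change in variant-to-wild-type read ratio, rescaled against cognate and non-cognate.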
With TDAD the “one-hybrid fitness for binding parS DNA” value was no more than 0.2. For LRQT, the “one-hybrid fitness for binding parS DNA” value was no more than 0.2. For SRFH, the “one-hybrid fitness for binding parS DNA” value was no more than 0.2. MTPK was tested, and the “one-hybrid fitness for binding parS DNA” value was no more than 0.2. SDSH was tested, and the “one-hybrid fitness for binding parS DNA” value was no more than 0.2. For HRPG, the “one-hybrid fitness for binding parS DNA” value was no more than 0.2. With RYSY the “one-hybrid fitness for binding parS DNA” value was 0.425. With KYNT the “one-hybrid fitness for binding parS DNA” value was no more than 0.2. With PFLA the “one-hybrid fitness for binding parS DNA” value was no more than 0.2. For GAIL, the “one-hybrid fitness for binding parS DNA” value was no more than 0.2. In the case of TLNC, the “one-hybrid fitness for binding parS DNA” value is reported as no more than 0.2. In the case of HTHM, the “one-hybrid fitness for binding parS DNA” value is reported as no more than 0.2. PDHG was tested, and the “one-hybrid fitness for binding parS DNA” value was no more than 0.2. EYCR was tested, and the “one-hybrid fitness for binding parS DNA” value was no more than 0.2. RFYK was tested, and the “one-hybrid fitness for binding parS DNA” value was no more than 0.2. For GTVS, the “one-hybrid fitness for binding parS DNA” value was no more than 0.2. In the case of APYI, the “one-hybrid fitness for binding parS DNA” value is reported as no more than 0.2. VMNV was tested, and the “one-hybrid fitness for binding parS DNA” value was no more than 0.2. For KPPY, the “one-hybrid fitness for binding parS DNA” value was no more than 0.2. In the case of ITHL, the “one-hybrid fitness for binding parS DNA” value is reported as no more than 0.2. In the case of RTVM, the “one-hybrid fitness for binding parS DNA” value is reported as 0.315. With NWST the “one-hybrid fitness for binding parS DNA” value was no more than 0.2. In the case of ENYW, the “one-hybrid fitness for binding parS DNA” value is reported as no more than 0.2. For QHNI, the “one-hybrid fitness for binding parS DNA” value was no more than 0.2. QRFG was tested, and the “one-hybrid fitness for binding parS DNA” value was no more than 0.2. DKWG was tested, and the “one-hybrid fitness for binding parS DNA” value was no more than 0.2. For QRVH, the “one-hybrid fitness for binding parS DNA” value was no more than 0.2. In the case of WHFT, the “one-hybrid fitness for binding parS DNA” value is reported as no more than 0.2. SQVC was tested, and the “one-hybrid fitness for binding parS DNA” value was no more than 0.2. In the case of LCEC, the “one-hybrid fitness for binding parS DNA” value is reported as no more than 0.2. For WRTN, the “one-hybrid fitness for binding parS DNA” value was no more than 0.2. For PNYV, the “one-hybrid fitness for binding parS DNA” value was no more than 0.2. With CILA the “one-hybrid fitness for binding parS DNA” value was no more than 0.2. RAKA was tested, and the “one-hybrid fitness for binding parS DNA” value was 0.737. For SDTF, the “one-hybrid fitness for binding parS DNA” value was no more than 0.2. PPLL was tested, and the “one-hybrid fitness for binding parS DNA” value was no more than 0.2. With DTRT the “one-hybrid fitness for binding parS DNA” value was no more than 0.2. FCNT was tested, and the “one-hybrid fitness for binding parS DNA” value was no more than 0.2. For CWSA, the “one-hybrid fitness for binding parS DNA” value was no more than 0.2. With RYEK the “one-hybrid fitness for binding parS DNA” value was no more than 0.2. PERW was tested, and the “one-hybrid fitness for binding parS DNA” value was no more than 0.2. In the case of FEDS, the “one-hybrid fitness for binding parS DNA” value is reported as no more than 0.2. LMPS was tested, and the “one-hybrid fitness for binding parS DNA” value was no more than 0.2. With KIYA the “one-hybrid fitness for binding parS DNA” value was 0.271. In the case of PKSH, the “one-hybrid fitness for binding parS DNA” value is reported as 0.3. For SENT, the “one-hybrid fitness for binding parS DNA” value was no more than 0.2. For SSPQ, the “one-hybrid fitness for binding parS DNA” value was no more than 0.2. For QCIS, the “one-hybrid fitness for binding parS DNA” value was no more than 0.2. With AMDA the “one-hybrid fitness for binding parS DNA” value was no more than 0.2. For YGAC, the “one-hybrid fitness for binding parS DNA” value was no more than 0.2. In the case of SVIA, the “one-hybrid fitness for binding parS DNA” value is reported as no more than 0.2. With HQYC the “one-hybrid fitness for binding parS DNA” value was no more than 0.2. In the case of ESLT, the “one-hybrid fitness for binding parS DNA” value is reported as no more than 0.2. PTMM was tested, and the “one-hybrid fitness for binding parS DNA” value was no more than 0.2. VTFK was tested, and the “one-hybrid fitness for binding parS DNA” value was no more than 0.2. For DRMG, the “one-hybrid fitness for binding parS DNA” value was no more than 0.2. For KNGT, the “one-hybrid fitness for binding parS DNA” value was no more than 0.2. For IFTM, the “one-hybrid fitness for binding parS DNA” value was no more than 0.2. For RKIF, the “one-hybrid fitness for binding parS DNA” value was no more than 0.2. For FFWR, the “one-hybrid fitness for binding parS DNA” value was no more than 0.2. In the case of PSTM, the “one-hybrid fitness for binding parS DNA” value is reported as no more than 0.2. EQHT was tested, and the “one-hybrid fitness for binding parS DNA” value was no more than 0.2. For NFNR, the “one-hybrid fitness for binding parS DNA” value was no more than 0.2. For YVSG, the “one-hybrid fitness for binding parS DNA” value was no more than 0.2. DSRD was tested, and the “one-hybrid fitness for binding parS DNA” value was no more than 0.2. For HGMS, the “one-hybrid fitness for binding parS DNA” value was no more than 0.2. RTCE was tested, and the “one-hybrid fitness for binding parS DNA” value was no more than 0.2. With FLNM the “one-hybrid fitness for binding parS DNA” value was no more than 0.2. With LHNT the “one-hybrid fitness for binding parS DNA” value was no more than 0.2. In the case of GRVL, the “one-hybrid fitness for binding parS DNA” value is reported as no more than 0.2. With HCGG the “one-hybrid fitness for binding parS DNA” value was no more than 0.2. In the case of GANM, the “one-hybrid fitness for binding parS DNA” value is reported as no more than 0.2. In the case of TAAM, the “one-hybrid fitness for binding parS DNA” value is reported as no more than 0.2. TIMK was tested, and the “one-hybrid fitness for binding parS DNA” value was no more than 0.2. For RLPK, the “one-hybrid fitness for binding parS DNA” value was no more than 0.2. INMR was tested, and the “one-hybrid fitness for binding parS DNA” value was no more than 0.2. QIFK was tested, and the “one-hybrid fitness for binding parS DNA” value was no more than 0.2. With DKVI the “one-hybrid fitness for binding parS DNA” value was no more than 0.2. For DVMC, the “one-hybrid fitness for binding parS DNA” value was no more than 0.2. In the case of ALPN, the “one-hybrid fitness for binding parS DNA” value is reported as no more than 0.2. For WHCC, the “one-hybrid fitness for binding parS DNA” value was no more than 0.2. For SRWI, the “one-hybrid fitness for binding parS DNA” value was no more than 0.2. VHDG was tested, and the “one-hybrid fitness for binding parS DNA” value was no more than 0.2. For NWTS, the “one-hybrid fitness for binding parS DNA” value was no more than 0.2. With NLPI the “one-hybrid fitness for binding parS DNA” value was no more than 0.2. For SPEF, the “one-hybrid fitness for binding parS DNA” value was no more than 0.2. In the case of WCKL, the “one-hybrid fitness for binding parS DNA” value is reported as no more than 0.2. With YDAG the “one-hybrid fitness for binding parS DNA” value was no more than 0.2. With PHRM the “one-hybrid fitness for binding parS DNA” value was no more than 0.2. QLRA was tested, and the “one-hybrid fitness for binding parS DNA” value was no more than 0.2. TFRG was tested, and the “one-hybrid fitness for binding parS DNA” value was no more than 0.2. In the case of SWRF, the “one-hybrid fitness for binding parS DNA” value is reported as no more than 0.2. With HLCT the “one-hybrid fitness for binding parS DNA” value was no more than 0.2. TQRW was tested, and the “one-hybrid fitness for binding parS DNA” value was no more than 0.2. In the case of LDSC, the “one-hybrid fitness for binding parS DNA” value is reported as no more than 0.2. NAIF was tested, and the “one-hybrid fitness for binding parS DNA” value was no more than 0.2. With WPFI the “one-hybrid fitness for binding parS DNA” value was no more than 0.2. QPSH was tested, and the “one-hybrid fitness for binding parS DNA” value was no more than 0.2. With WSRT the “one-hybrid fitness for binding parS DNA” value was no more than 0.2. With EGNG the “one-hybrid fitness for binding parS DNA” value was no more than 0.2. HSPR was tested, and the “one-hybrid fitness for binding parS DNA” value was no more than 0.2. In the case of YIYS, the “one-hybrid fitness for binding parS DNA” value is reported as no more than 0.2. In the case of AFVQ, the “one-hybrid fitness for binding parS DNA” value is reported as no more than 0.2. In the case of SFPW, the “one-hybrid fitness for binding parS DNA” value is reported as no more than 0.2. SENG was tested, and the “one-hybrid fitness for binding parS DNA” value was no more than 0.2. For HDMV, the “one-hybrid fitness for binding parS DNA” value was no more than 0.2. In the case of CCSC, the “one-hybrid fitness for binding parS DNA” value is reported as no more than 0.2. With NSSI the “one-hybrid fitness for binding parS DNA” value was no more than 0.2. QKAN was tested, and the “one-hybrid fitness for binding parS DNA” value was no more than 0.2. With CQKM the “one-hybrid fitness for binding parS DNA” value was no more than 0.2. With HIPH the “one-hybrid fitness for binding parS DNA” value was no more than 0.2. In the case of RTHG, the “one-hybrid fitness for binding parS DNA” value is reported as 1.01. In the case of QHLL, the “one-hybrid fitness for binding parS DNA” value is reported as no more than 0.2. With DTKS the “one-hybrid fitness for binding parS DNA” value was no more than 0.2. With AYMA the “one-hybrid fitness for binding parS DNA” value was no more than 0.2. With PFES the “one-hybrid fitness for binding parS DNA” value was no more than 0.2. For GVIG, the “one-hybrid fitness for binding parS DNA” value was no more than 0.2. For RGSL, the “one-hybrid fitness for binding parS DNA” value was no more than 0.2. In the case of AMMS, the “one-hybrid fitness for binding parS DNA” value is reported as no more than 0.2. LSLM was tested, and the “one-hybrid fitness for binding parS DNA” value was no more than 0.2. TLFG was tested, and the “one-hybrid fitness for binding parS DNA” value was no more than 0.2. In the case of NHLV, the “one-hybrid fitness for binding parS DNA” value is reported as no more than 0.2. DLIL was tested, and the “one-hybrid fitness for binding parS DNA” value was no more than 0.2. In the case of CVGS, the “one-hybrid fitness for binding parS DNA” value is reported as no more than 0.2. VQPA was tested, and the “one-hybrid fitness for binding parS DNA” value was no more than 0.2. For YLFS, the “one-hybrid fitness for binding parS DNA” value was no more than 0.2. VFLD was tested, and the “one-hybrid fitness for binding parS DNA” value was no more than 0.2. With YMAV the “one-hybrid fitness for binding parS DNA” value was no more than 0.2. In the case of NCID, the “one-hybrid fitness for binding parS DNA” value is reported as no more than 0.2. With PVQT the “one-hybrid fitness for binding parS DNA” value was no more than 0.2. In the case of ENDC, the “one-hybrid fitness for binding parS DNA” value is reported as no more than 0.2. In the case of NSTM, the “one-hybrid fitness for binding parS DNA” value is reported as no more than 0.2. KCIR was tested, and the “one-hybrid fitness for binding parS DNA” value was no more than 0.2. HIGS was tested, and the “one-hybrid fitness for binding parS DNA” value was no more than 0.2. In the case of KKNV, the “one-hybrid fitness for binding parS DNA” value is reported as no more than 0.2. For PCQD, the “one-hybrid fitness for binding parS DNA” value was no more than 0.2. With STSI the “one-hybrid fitness for binding parS DNA” value was no more than 0.2. In the case of FRSH, the “one-hybrid fitness for binding parS DNA” value is reported as no more than 0.2. With IPED the “one-hybrid fitness for binding parS DNA” value was no more than 0.2. For PVLL, the “one-hybrid fitness for binding parS DNA” value was no more than 0.2. With RHYV the “one-hybrid fitness for binding parS DNA” value was no more than 0.2. For TWKG, the “one-hybrid fitness for binding parS DNA” value was no more than 0.2. In the case of VIMR, the “one-hybrid fitness for binding parS DNA” value is reported as no more than 0.2. For SWSW, the “one-hybrid fitness for binding parS DNA” value was no more than 0.2. RVQQ was tested, and the “one-hybrid fitness for binding parS DNA” value was no more than 0.2. KRIM was tested, and the “one-hybrid fitness for binding parS DNA” value was no more than 0.2. WFVR was tested, and the “one-hybrid fitness for binding parS DNA” value was no more than 0.2. In the case of YRTT, the “one-hybrid fitness for binding parS DNA” value is reported as no more than 0.2. For FHHG, the “one-hybrid fitness for binding parS DNA” value was no more than 0.2. QLLF was tested, and the “one-hybrid fitness for binding parS DNA” value was no more than 0.2. In the case of IINM, the “one-hybrid fitness for binding parS DNA” value is reported as no more than 0.2. SKQL was tested, and the “one-hybrid fitness for binding parS DNA” value was no more than 0.2. In the case of SSCA, the “one-hybrid fitness for binding parS DNA” value is reported as no more than 0.2.
